Out of some 50,000 compounds screened, about 800 (1.6%) showed an effect of 50% or more. The list shows a part of the results.

In the assay the target is Bcl-2-like protein 10 (Homo sapiens) (UniProt Q9HD36). As to the kind of experiment: Phenotype converters, Bcl-B/TR3 peptide binding displacement, primary biochemical FP (AID 1240).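 Further: 0% = Bcl-B with tracer peptide and DMSO and 100% = tracer peptide lacking Bcl-B.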 Particulars: GST-Bcl-B / FITC-TR3 peptide fluorescence polarization; stronger effect = higher value; compound at 3.75 mg/L. (Fluorescence polarisation rises when a labelled molecule tumbles more slowly, as on binding a larger partner.)
Chain of UniProt Q9HD36 (Q9HD36 whole entry, looked up): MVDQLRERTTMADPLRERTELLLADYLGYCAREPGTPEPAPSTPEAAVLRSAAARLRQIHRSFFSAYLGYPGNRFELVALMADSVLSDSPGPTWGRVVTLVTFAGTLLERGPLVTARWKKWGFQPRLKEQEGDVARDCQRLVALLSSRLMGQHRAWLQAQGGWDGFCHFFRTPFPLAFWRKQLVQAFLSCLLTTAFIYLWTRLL
Consider `C(=NNc1cc(N2CCOCC2)nc(N2CCOCC2)n1)c1cccs1`, for which the displacement came to 3.8%.

For the compound `Cc1ccc(C2(c3ccc(C)cc3)CC2C(=O)Nc2ccncc2)cc1` (centres undefined), the displacement was determined as 4.1%.

Consider `C=CCN1C(=O)C2C3c4ccccc4C(c4ccccc43)C2C1=O` (centres undefined), for which the displacement turned out to be 7.3%.

Turning to `Cc1ccc(-c2cc3nc4c(c(=O)n3[nH]2)SCC4)cc1`, the displacement was -4.6%.

Regarding `C#CCn1cc(/C=C(/C#N)C(=O)Nc2ccc(Cl)cc2)c2ccccc21`, the displacement was -4.5%.

Consider `O=C1NC(=S)N(c2cccc(Cl)c2)C(=O)/C1=C\c1ccc(N2CCCC2)cc1`, for which the displacement was -14.4%.

On to `CCCOc1ccc(/C=C2\C(=O)NN(c3ccccc3)C2=O)cc1OC`, for which the displacement came to 12.5%.

In the case of `COC(=O)N(C)CCCC1(C)C(=O)N(C)c2ccc(O)cc21` (centres undefined), the displacement was 5.3%.

Take `O=C1c2cccc3cccc(c23)C(=O)N1/N=C/c1ccccc1`: the displacement was -15.3%.

As to `CC1(C)CC(=O)c2cnc(NC(=O)/C=C/c3cccc([N+](=O)[O-])c3)nc2C1`, the displacement turned out to be 26.3%.

In the case of `CCN(CC)c1ccc(/C=C(\C#N)C(=O)NC2CCS(=O)(=O)C2)cc1` (centres undefined), the displacement is -3.1%.

As to `Cc1cc2c(cc1C)CN(c1ccc(C=Nc3ccc(Br)cc3)cc1)C2`, the displacement came to 1%.

`O=C(Nc1ccc(Cl)c(Cl)c1)Nc1cccc(Cl)c1Cl`: the displacement was determined as 5.9%.

Turning to `Cc1cc(=O)[nH]c(N(C)Cc2ccccc2)n1`, the displacement is -6.2%.

`COc1ccc(C2C(C(=O)OC(C)C)C(=O)CC(C)(O)C2C(=O)OC(C)C)cc1OC` (centres undefined): the displacement is 8.3%.

In the case of `COC(=O)C1=CN(Cc2ccc(OC)cc2)C=C(C(=O)OC)C1c1ccc(C)s1`, the displacement was 2.4%.

As to `Cc1ccc(NC2=CC(c3ccc([N+](=O)[O-])cc3)N(c3ccc(C)cc3)C2=O)cc1` (centres undefined), the displacement is -1.5%.

As for `O=C(Nc1ccc2[nH]c(=O)[nH]c2c1)c1cccnc1`, the displacement came out at 14.4%.

Turning to `COc1ccc(-c2noc(C34CC5CC(CC(C5)C3)C4)n2)cc1`, the displacement is -11.6%.

`COc1cc2ccccc2cc1C(=O)Nc1ccc(I)cc1Cl`: the displacement was 26.7%.

For the compound `Cc1cccc(-n2c(C)cc(/C=N/n3cnnc3)c2C)c1`, the displacement amounted to 5.3%.

Consider `CC1=C(C(=O)OCc2ccccc2)C(c2ccc(F)c(Br)c2)CC(=O)N1` (centres undefined), for which the displacement is -6.1%.

For the compound `CC(=O)/C=C/c1ccc(-c2cccc([N+](=O)[O-])c2)o1`, the displacement is -5.2%.

Turning to `COc1ccc(NC(=O)CN(c2ccccc2Cl)S(C)(=O)=O)c(OC)c1`, the displacement amounted to 5.9%.

As for `COc1ccc(NC(=O)c2sc3cc(C)ccc3c2Cl)c([N+](=O)[O-])c1`, the displacement turned out to be 9.1%.

Take `CCc1ccccc1NC(=O)C(=O)NCc1ccco1`: the displacement worked out at 8.7%.

On to `COc1ccc(OC)c(NC(=O)C(=O)NNS(=O)(=O)c2ccccc2)c1`, for which the displacement is -5.3%.

Turning to `O=C(Nc1cccc(-c2nc3ccccc3s2)c1)c1cc2ccccc2oc1=O`, the displacement is 4%.

In the case of `COc1ccc(/C(C)=N/NC(=O)COc2ccc(Cl)cc2Cl)cc1OC`, the displacement came to 1.2%.

On to `Cc1[nH][nH]c(=O)c1C(c1ccccc1F)C(C#N)C#N` (centres undefined), for which the displacement is -0.4%.

`O=C(Nc1nncs1)c1cc(-c2ccccc2Cl)nc2ccccc12`: the displacement was 0.8%.

Regarding `COc1cc2c(cc1NC(=O)c1c(-c3c(Cl)cccc3Cl)noc1C)oc1ccccc12`, the displacement is -0.2%.

Regarding `Cc1cc2nc(-c3cc(NC(=O)c4ccc5c(c4)OCCO5)ccc3O)oc2cc1C`, the displacement worked out at 42%.

Regarding `Cc1ccc(-c2cc(C(F)(F)F)n3ncc(C(=O)NCCCN4CCOCC4)c3n2)cc1`, the displacement was 9.9%.

`Cc1cccc(C)c1OCC(=O)Nc1ccccc1O`: the displacement came out at 13.6%.

With `CC(C)C1S/C(=N/N=C/c2ccc(O)cc2)NC1=O` (centres undefined), the displacement was -12.9%.

With `CCOC(=O)COc1ccc(/C=C2/C(=O)NN(c3cccc(Cl)c3)C2=O)cc1OC`, the displacement is -3.3%.

`Cc1cc(C(=O)Nc2cccc(O)c2)c(C)o1`: the displacement amounted to 16.3%.

On to `O=C(NN1C(=O)C2CC=CCC2C1=O)c1ccncc1` (centres undefined), for which the displacement is -20.9%.

Consider `COc1cc(C=C2C(=O)N(C)C(=O)N(C)C2=O)ccc1OCCOc1ccc(C)cc1`, for which the displacement worked out at 6%.

`CCOC(=O)C1=CN(c2ccc(F)cc2)C=C(C(=O)OCC)C1c1ccc(F)cc1`: the displacement was -1.2%.

For `COc1ccccc1OCCOc1ccccc1OC`, the displacement came out at 7.3%.

For the compound `COc1ccc(OC)c(/C=C/C(=O)c2cccc([N+](=O)[O-])c2)c1`, the displacement was -6.4%.

In the case of `O=C(COc1ccc(Cl)cc1Cl)Nc1ccccc1C(=O)Nc1ccccc1`, the displacement is -5.8%.

Take `CC1=C(C(=O)OC2CCCC2)C(c2ccccc2)C2=C(CC(c3ccc(Cl)cc3)CC2=O)N1` (centres undefined): the displacement is -6.2%.

For the compound `CN1C(=O)NC(=O)/C(=C/c2cc3c(cc2Br)OCO3)C1=O`, the displacement was 4.3%.

Regarding `O=c1/c(=C/c2cccs2)sc2nc3ccccc3n12`, the displacement turned out to be 7.2%.

Turning to `COc1ccc(C/C(O)=C(\C#N)c2nc3ccccc3[nH]2)cc1`, the displacement was 46.4%.

As for `Cc1ccccc1N(CC(=O)N1CCOCC1)S(C)(=O)=O`, the displacement is 2.7%.

In the case of `Cc1cc(/C=N/N2C(=O)c3ccccc3C2=O)c(C)n1-c1ccc(N(C)C)cc1`, the displacement is 3.5%.

`COc1ccc(NS(=O)(=O)c2ccc(F)cc2)cc1OC`: the displacement amounted to 3.9%.

With `Cc1cccc(NC(=O)c2cc(Cl)ccc2Cl)n1`, the displacement turned out to be 4.6%.

As to `O=C(Nc1ccc(S(=O)(=O)Nc2nccs2)cc1)c1ccc([N+](=O)[O-])cc1Cl`, the displacement came out at 0.9%.

Consider `COC(=O)c1ccc(/C=N/NC(=O)COc2ccc(C(C)(C)CC(C)(C)C)cc2[N+](=O)[O-])cc1`, for which the displacement was found to be 7.7%.

Regarding `N#CC1=C(N)Oc2cc(O)ccc2C1C1CCCCC1` (centres undefined), the displacement is -7.1%.

In the case of `N/C(=N\N=C\c1ccccc1O)c1nonc1N`, the displacement is -7.8%.

For `COc1ccc(-c2ccc(/C=N/NC(=O)C(O)c3ccccc3)o2)cc1Cl` (centres undefined), the displacement is 9.8%.

As for `CCOC(=O)CSc1nc2sc3c(c2c(=O)[nH]1)CC(C)(C)OC3`, the displacement amounted to 1.1%.

For `O=C(CCc1ccccc1)Nc1nc(-c2ccccc2)cs1`, the displacement is 2.1%.

For the compound `CSc1ccc(/C=C2/SC(=S)N(CC(=O)O)C2=O)cc1`, the displacement was -2.4%.

For the compound `O=C(CN1C(=O)/C(=C\c2ccccc2Cl)SC1=S)Nc1ccc([N+](=O)[O-])cc1O`, the displacement was -5%.

Consider `O=C1C2=C(Nc3ccccc3SC2c2ccc([N+](=O)[O-])cc2)c2ccccc21` (centres undefined), for which the displacement is -6%.

As for `CCCCOC(=O)c1ccc(NC(=O)COc2ccc3c(c2)oc(=O)c2ccccc23)cc1`, the displacement is -4.7%.

Consider `COc1ccc(-c2nc(NC(=O)c3ccco3)sc2-c2ccc([N+](=O)[O-])cc2)cc1`, for which the displacement worked out at 5.5%.

As for `O=C(NC12CC3CC(CC(C3)C1)C2)c1ccc(F)cc1`, the displacement came to 4.3%.

`CC(=O)c1oc2ccc3c(C)cc(=O)oc3c2c1-c1ccccc1`: the displacement was -10.7%.

Take `O=C(Nc1ccccc1[N+](=O)[O-])c1ccc2ccccc2n1`: the displacement was 89.3%.

For `COc1ccc(C2NC(=O)NC(C)=C2C(C)=O)cc1` (centres undefined), the displacement turned out to be 17.3%.

As to `COc1ccc(Nc2nc(Nc3ccc([N+](=O)[O-])cc3)nc(OC)n2)cc1`, the displacement was found to be 9.1%.

In the case of `O=S(=O)(c1ccc(C=Nc2ccc(Br)cc2)cc1)c1ccc(C=Nc2ccc(Br)cc2)cc1`, the displacement was -8.7%.

Regarding `CCOc1ccc2ccccc2c1/C=C1/C(=O)NC(=O)N(C)C1=O`, the displacement is -8.4%.

Turning to `COc1ccccc1OCCOc1ccc(/C=N/N2C(=O)CSC2=S)cc1`, the displacement was found to be 13.5%.

With `CCCCS(=O)(=O)C(=C(Nc1ccc(OC)cc1)Nc1ccc(OC)cc1)S(=O)(=O)CCCC`, the displacement is -0.7%.

Take `COC1(/C(=C/C(=O)c2ccc(C)cc2)Nc2ccccc2)CCCCC1`: the displacement is 4.5%.

Turning to `COc1cc(C2NC(=O)NC(C)=C2C(=O)OCCOc2ccccc2)cc(Cl)c1O` (centres undefined), the displacement came out at 13.9%.

Take `COc1ccccc1N1C(=O)C2C3C=CC(CC3)C2C1=O` (centres undefined): the displacement was 5.3%.

As for `Cc1ccccc1C(=O)NNC(=O)c1ccco1`, the displacement is -17.2%.

For `COc1ccc(-c2nn(-c3ccccc3)c(N)c2-c2ccccc2)cc1OC`, the displacement came to 11.2%.

On to `Cc1cc(C)cc(N2C(=O)NC(=O)/C(=C\c3sccc3C)C2=O)c1`, for which the displacement came to 20.5%.

With `CC(C)(C(=O)c1ccccc1)/[N+]([O-])=C/c1ccc(Br)cc1`, the displacement is -8.7%.

`Cc1ccc(S(=O)(=O)N(Cc2ccccc2)c2ccccc2C(=O)NCCc2ccccc2)cc1`: the displacement stood at 17.3%.

On to `Cc1ccc(NC(=O)/C(=C/c2cccc([N+](=O)[O-])c2)NC(=O)c2ccccc2)c(Br)c1`, for which the displacement was -0.3%.

As for `O=C(O)CNC(=O)c1ccccc1Cl`, the displacement was -12.2%.

`CCc1ccc(-c2nc3cc(NC(=S)NC(=O)c4ccco4)ccc3o2)cc1`: the displacement came out at 14.6%.

Turning to `Cc1ccc(/C=C2\SC(=O)N(CCC(=O)Nc3c(C)n(C)n(-c4ccccc4)c3=O)C2=O)cc1`, the displacement was 4.4%.

For `O=C(Nc1cccnc1)c1cccc(Cl)c1Cl`, the displacement stood at 13.1%.

As to `CCOc1ccccc1NC(=O)C(=O)NCCc1ccc(OC)c(OC)c1`, the displacement was 6.4%.

As to `COc1ccc(N(CC(O)CN(Cc2ccccc2)Cc2ccccc2)S(=O)(=O)c2ccc(C)cc2)cc1` (centres undefined), the displacement worked out at 8.3%.

In the case of `COC(=O)c1ccc(N2C(=O)CC(N3CCN(c4ccc(Cl)cc4)CC3)C2=O)cc1` (centres undefined), the displacement is -4.6%.

Consider `O=C1S/C(=C/c2ccc([N+](=O)[O-])cc2)C(=O)N1c1ccccc1`, for which the displacement was 0.2%.

Regarding `O=C(COc1ccc2ccccc2c1)NNC(=O)c1cccc(Cl)c1`, the displacement was -8%.

Take `COc1ccccc1OCCOc1c(Cl)cc(/C=N/n2cnnc2)cc1OC`: the displacement was -10.1%.

Turning to `COc1ccc(C2CC(C(F)(F)F)n3nc(C(=O)Nc4cccc(Cl)c4Cl)c(Cl)c3N2)cc1` (centres undefined), the displacement came out at 2.8%.

For `O=c1c2ccccc2nc2n1C1(CCCCC1)Cc1ccccc1-2`, the displacement is -5.9%.

Turning to `CC(=O)N(C)N1c2ccccc2CCc2ccccc21`, the displacement is -1%.

For the compound `Cc1ccc(OCC(=O)Nc2cc([N+](=O)[O-])ccc2Cl)c(Br)c1`, the displacement was -3.6%.

In the case of `CN(Cc1ccccc1)C(=O)c1nn2c(C(F)(F)F)c3c(nc2c1Cl)-c1ccccc1CC3`, the displacement came to 5.2%.

For `CCOC(=O)C1=C(C)N=c2s/c(=C\c3ccc(O)c(OC)c3)c(=O)n2C1c1cccc(OC)c1` (centres undefined), the displacement is -2.1%.

Consider `O=[N+]([O-])c1cccc(Cl)c1C1NN=C(Cc2ccccc2)S1` (centres undefined), for which the displacement was -9.8%.

As to `CN1CCN(C(=O)c2cc3nc(-c4cccs4)cc(C(F)(F)F)n3n2)CC1`, the displacement amounted to 0.5%.

Consider `CC(C)NC(=O)c1c(NC(=O)c2cccs2)sc2c1CCCC2`, for which the displacement was -3.3%.

Consider `COc1ccc(C2/C(=C(/O)c3ccccc3)C(=O)C(=O)N2c2cccc(C(F)(F)F)c2)cc1OC` (centres undefined), for which the displacement stood at 3.4%.

`Cc1onc(-c2ccccc2Cl)c1C(=O)Nc1sc2c(c1C(N)=O)CCCC2`: the displacement was -12.9%.

Regarding `O=C(N/N=C/c1cccc(O)c1)c1cc(-c2ccccc2)n[nH]1`, the displacement is -19.3%.

These data come from PubChem BioAssay AID1240 (Sanford-Burnham Center for Chemical Genomics, 2008).
